# The supplement of paper PMC11417369
# This is one part of the list.
# Tested on: PfSIP2 AP2 domain 1 (GST-tagged)
# Assay: gcPBM binding intensity (ln(normalized median fluorescence intensity)); higher = stronger DNA binding
# How it was run: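 After 1 h on an Agilent 4 × 180k array of primer-extended double-stranded 36-bp intergenic genomic probes and negative controls, bound GST-tagged P. falciparum DNA-binding domains were detected with Alexa488 anti-GST antibody and scanned at 488 nm. The domains had been expressed in E. coli, and binding took place in 1× PBS with 1% milk, 0.2 mg/ml BSA, 0.5% salmon testes DNA and 0.03% Triton X-100. Binding intensity is the highest Masliner-normalised natural-log median intensity across replicate spots of either probe orientation.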
row,Sequence,gcPBM binding intensity (ln)
1,CATACACAAGAAAATTCACACACACCCATATATATA [CACACA_site9288],7.73
2,AACATACAGAAACACACACACACACCCACACCCACA [CACACA_site493],7.07
3,TTTTTTTTTTTGTATCGTACATTTATAATGTTTATA [XGTACX_site6804],6.88
4,TTTTTTTCATATAACACACACACAAAAATAATGTGG [CACACA_site3688],7.01
5,AAGTTAACAATATGAAGTACAAATGAAAAAAAAAAA [XGTACX_site666],7.09
6,ATATATATATATCATAGTACACATATGTGTCTCGTG [XGTACX_site774],7.87
7,TTGTTATAGAAGCATTCACACACACCCATACATACA [CACACA_site8414],7.29
8,ATATATATTTATTTATGTACGAATAAATTTACGAAT [XGTACX_site5190],7.09
9,TTAATAGGTCGAAGTAGTACATAAAAATATATATAT [XGTACX_site5960],8.1
10,AATATCATTATATAAGTGCATTTTTTAAAAGATAAA [GTGCAC_site9479],9.12
11,AAATTAAAAAGAGCTTGTACAGATGTATACATAATA [XGTACX_site3882],6.86
12,TTTATAATTCTTACAACACACAATGTACATTTATAT [CACACA_site1261],7.06
13,TATATGAAGCTATAGACACACATATAAAAATAGAAT [CACACA_site1313],7.18
14,AATTTATATGTTTTGTGTACACAATTTATTAAATTA [XGTACX_site6448],7.36
15,TACATACAGATATATACACACATATAAAATATAGAT [CACACA_site6319],6.81
16,ATTATATATAAATATACACACATATATAAAATACAT [CACACA_site5298],7.02
17,AAGAGAAAAATATGGTTGCACTAAAAATATATATTT,7.64
18,TAAAAAATTAATAAAGTGCATAAATATTACAATATT,8.14
19,TTTTCTAAATATTATAGTACTCTTAATAATATTAAC [XGTACX_site4222],6.93
20,TTAACAAAATATAGCACACATAAATATATATTTATG [CACACA_site351],7.17
21,ATTCATATATTTATTGCATGCAAAGTAAAATAAATA [TGCATGCA_site307],6.97
22,GACATATTAGAAGGGTGTACATACTTTTAATCATTT [XGTACX_site1698],7.08
23,AATATTAAAATATAAACACACAAAATTCAATTATAT [CACACA_site5971],6.96

row,Sequence,gcPBM binding intensity (ln)
1,TACATATATATATGTATATATATATATATATAAATA [XGTACX_negctrl_site351],7.38
2,AAATGTGCATTATGTTGTACAGTCGAAATTTTTTTT [XGTACX_site3812],7.28
3,ACATAACTGATATATACACACAATACAAATATAGAT [CACACA_site7328],7.07
4,ATGAATAAATGAACATGTACATATATATATATATTA [XGTACX_site5005],7.37
5,TAATATTTTTATTATTAGAATTGTATATGTTTAATA [CACACA_negctrl_site1833],6.77
6,CATATATCATAAATATGTACGAAATAAAAGAATCAT [XGTACX_site942],7.07
7,ATAAAAGGAATATTTGCATGTGGTAGTACATAACAT [TGCATGCA_site978],7.71
8,TTTTCTTACTATTGTAGTACAATATTATATTCTTTT [XGTACX_site1925],7.15
9,TATAAATATGTATATACACACTTTTAATATTCATAA [CACACA_site7856],6.92
10,TGCGTATTCTTATTAGGTACACATATTCGTGATAAT [XGTACX_site5681],6.99
11,GATTTATATATATAAAATAATTGAATATTTTCTTTT [CACACA_negctrl_site801],6.77
12,TAATTTGAAAAATTGTGTACTCATAAAATAAATAAA [XGTACX_site2138],7.54
13,ATAAAAAAATAAAACACACACATATAGATTATAGAT [CACACA_site7343],7
14,ATAGATGATATACGTAAACACACAAATAAAAAAAAT [CACACA_site9095],7.15
15,TTTATTTTTCATAATTGTACAAAAATAAATGGAAAC [XGTACX_site5144],7.5
16,TACAAATATAGACACACACACATATATATATATATA [CACACA_site585],9.72
17,TATTATATATTAAATGCATGTAAAAATAATATTAAA [TGCATGCA_site643],7.02
18,ATATTATAATAAATGTGTACATATTGTAGAAATATT [XGTACX_site8101],6.97
19,AATTATTTACCCTATACACACAAAACACGCTAAAAA [CACACA_site1211],7.24
20,ATTTTGTGCGCACACACATGCAAAAAGAAATATGAT [TGCATGCA_site261],8.77
21,AAAGAGAGTATCTAATGTACGTATGTATGTATATAT [XGTACX_site1780],7.4
22,ATCGTGAATAATATCTGTACATATGAACACATATAT [XGTACX_site952],7.19
